Some of the results follow.
B1: chr6:15520333:15520434:+|3pUTR|ENSG00000008083|unk|total|mutant (ssRNA)
RNA: GGGAGUUCUACAGUCCGACGAUCCUUGCUGCCGGAUUCAAGCUGUCUUUGCACCCGCUCUAAAGAAGAUUUUCUUCUGGUUUCCGAGAACUAAUUUUGUUUCCGCAUUAAACUGUUGAACUUUUUUUUGUACUCCGAAAACCUCAACAGAGGAUUGAGCAUCA
B2: ENSG00000107863:be:win_3401|CDS|ENSG00000107863|bound_else_gene|NA|bound_elsewhere_windowed (ssRNA)
RNA: GGGAGUUCUACAGUCCGACGAUCCAUUUGAGAAAAAGCCAACUGCUACAGGAACUUUCGGCGUCCGACUAGAUGACUGCCCACCAGCUCAUACUAAUCGGUAUAUUCCAUUAAUAGUUGACAUAUGUUGCAAAUUAGUUGAAGCAACAGAGGAUUGAGCAUCA
B3: chr14:73713276:73713377:-|CDS|ENSG00000176903|unk|total|mutant (ssRNA)
RNA: GGGAGUUCUACAGUCCGACGAUCGGGCAAAGGAGGGGUCUGGAAAGUGUUAUUUAAGCCCCCAACUUCUGAUGCUGAAUUUUCCGAAAGAUUGCACCUCUUCCCCGCCCGAGAGGGGUGGACCGUGCAAGAUGUUGCCCGUGUCAACAGAGGAUUGAGCAUCA
B4: chr2:86144366:86144519:-|CDS|ENSG00000132305|unk|total|mutant (ssRNA)
RNA: GGGAGUUCUACAGUCCGACGAUCAAACACAUUUAAAUUACUGUCAUAUGCUUCCUAUUGCAUUGAGCAUGGUGAUCUGGAGCCCGCAGCAAAGUUUGUCAAUCAGCUGAAGGGGGAAUCCAGACGAGUGGCACAGGACUGGCUCAACAGAGGAUUGAGCAUCA
B5: chr8:25429562:25429664:-|3pUTR|ENSG00000104756|unk|FALSE|unique (ssRNA)
RNA: GGGAGUUCUACAGUCCGACGAUCAGAAAAGCACUCAUUUAAUAGAUGUAGGGAAACUAGAUAUUGCUGCCUUUUGAAUGGGGUAGGGGGGUUUACCUGGUUUUAUGACCAGGCAUAGUAUCUAUUAUAUUUGCUUUUAAAUAGCAACAGAGGAUUGAGCAUCA
B6: chr12:85264020:85264122:+|3pUTR|ENSG00000133640|unk|total|mutant (ssRNA)
RNA: GGGAGUUCUACAGUCCGACGAUCCACCGUAUUUCAGUUACUUUCCACAGCUGUGUUGCUCAAUAACCGCAUCCAGUGAACUUCCGUAUUUUUUUGUUUUUCCUGUAUUUUAUUAAAAUAUUUCAUCCCGAGAUAACUGAAGUGCAACAGAGGAUUGAGCAUCA
B7: ENSG00000107863:be:win_451|CDS|ENSG00000107863|bound_else_gene|NA|bound_elsewhere_windowed (ssRNA)
RNA: GGGAGUUCUACAGUCCGACGAUCUUGGAACUUAGUGUUAUGCCAAAAGAUGAAGACAUUCUCCAAGUGCUACAGUUUACAAAGGAUGUCACAGCACUGGCAUAUUCUCAAGAUGCCUACCUGAAAGGCAACGAAGCUUAUAGCCAACAGAGGAUUGAGCAUCA
B8: chr8:97725557:97725573:+|3pUTR|ENSG00000147649|msi1_unk|total|mutant (ssRNA)
RNA: GGGAGUUCUACAGUCCGACGAUCGUUGACUUUAAAAAUGAAAUCAUUCACAAACUUUUGGUAUAUGAUGGAGAAUGAAAAACCCGAGUCAGACAGCUUUAAUUGACAUUGUCAACACCUCCAGUUAUCAGGAAUACAUUUUUUCAACAGAGGAUUGAGCAUCA
B9: chr9:136477283:136477384:-|CDS|ENSG00000148396|msi1|FALSE|unique (ssRNA)
RNA: GGGAGUUCUACAGUCCGACGAUCGCCCCCGCAGGGUUUUCUCAGCACCCCGGUUUGCUUGUUCCUCACACACAUGCCAGAGAUAGCUCUCAGGGACCCUGUGAGCCCCUGCCUGGACCUCUGACACAGCCCAGAGCACAUGCCCAACAGAGGAUUGAGCAUCA
B10: chr1:31434308:31434366:+|3pUTR|ENSG00000168528|msi1_unk|FALSE|overlapping (ssRNA)
RNA: GGGAGUUCUACAGUCCGACGAUCGCCAGGCUGAGCCCCCACCCCUGCCCCAGCUCCAGGACCUGCCCCUGAGCCGGGCCUUCUAGUCGUAGUGCCUUCAGGGUCCGAGGAGCAUCAGGCUCCUGCAGAGCCCCAUCCCCCCGCCAACAGAGGAUUGAGCAUCA
B11: chrX:23682378:23682503:+|CDS|ENSG00000123131|unk|FALSE|unique (ssRNA)
RNA: GGGAGUUCUACAGUCCGACGAUCUUCAUUAUUGAUGACAAAGGAAUCCUAAGACAAAUUACUCUGAAUGAUCUUCCUGUGGGUAGAUCAGUGGAUGAGACACUACGUUUGGUUCAAGCAUUCCAGUACACUGACAAACACGGACAACAGAGGAUUGAGCAUCA
B12: chr8:120459219:120459329:+|CDS|ENSG00000172167|unk|FALSE|unique (ssRNA)
RNA: GGGAGUUCUACAGUCCGACGAUCUUUGGAUUUGAAAUUAGUUUUCCUGAAUUUUGUUUAAAGGGAGUCACACUUAAGAAUUUUAGUACUUCUAAUUUAAAUACUGACUUCCUUGCCAAAAAGAUCAUACCAUCAAAGGAUAAGCAACAGAGGAUUGAGCAUCA
B13: chr17:67854386:67854487:+|CDS|ENSG00000171634|unk|FALSE|unique (ssRNA)
RNA: GGGAGUUCUACAGUCCGACGAUCAGAGGCAGAGGACUACCCAUAUGGACCAGUAGAGAACAAGAUCAAAGUUCUACAGUUUCUAGUCGAUCAGUUUCUUACAACAAAUAUUGCUCGAGAGGAAUUGAUGUCUGAAGGGGUGAUCAACAGAGGAUUGAGCAUCA
B14: chr13:24435276:24435388:-|CDS|ENSG00000102699|unk|total|mutant (ssRNA)
RNA: GGGAGUUCUACAGUCCGACGAUCCAAAAGAAAAAUGGAAUUAUCUCAGCCAGAAGUUUCUGAAGAUUUUGAAGAGGAUGGCUCCGGUGUACUACCAGCUUUCACAUCAAAUUUGGAACGUGGAGGUGUGGAAAAGCUAUUGGACAACAGAGGAUUGAGCAUCA
B15: chr8:41263181:41263319:-|3pUTR|ENSG00000104332|msi1|FALSE|unique (ssRNA)
RNA: GGGAGUUCUACAGUCCGACGAUCCUUAAGUGAUUUGCCUGUAAUUUUGGAUGAUUAAAAAAUGUGUAUAUAUAUUAGCUAAUUAGAAAUAUUCUACUUCUCUGUUGUCAAACUGAAAUUCAGAGCAAGUUCCUGAGUGCGUGGCAACAGAGGAUUGAGCAUCA
B16: chr22:36281740:36281783:-|3pUTR|ENSG00000100345|msi1_unk|total|mutant (ssRNA)
RNA: GGGAGUUCUACAGUCCGACGAUCUCUGACAGCCAGAGCGUCCGAGGGGCCAGCGGCCCUCCCAGGCGAUCUUGUGUCUACUCCCGGACUGGGCCCGAGGGUGGUUUACCUGCACCGUUGACUCAGUACCGUUUAAAAAUCUGCCAACAGAGGAUUGAGCAUCA
B17: chr19:582815:582998:+|CDS_3pUTR|ENSG00000172270|msi1_unk|total|mutant (ssRNA)
RNA: GGGAGUUCUACAGUCCGACGAUCUCAUACACUUCCUUCUUUUUUAAAAAAGUUGGGUUUUCUCCAUUCAGGAUUCUGUUCCUCCGGUUUUUUUCCUUCUGAAGUGUUUCACGAGAGCCCGGGAGCUGCUGCCCUGCGGCCCCGCAACAGAGGAUUGAGCAUCA
B18: chr17:29548703:29548809:+|3pUTR|ENSG00000160551|unk|FALSE|bound_elsewhere (ssRNA)
RNA: GGGAGUUCUACAGUCCGACGAUCAGCACUUGUGAGUGAAAAAUCAUGUAAUUAUCUGUAAAUAUGUAGCUAACAAAUUGACCUAGUUUCUGUAUUUUUUUGUUUUUGUACUAAAGUUUAUAGGUCUGUGCCAGCUAGAGAGAACAACAGAGGAUUGAGCAUCA
B19: chr7:6691352:6691453:-|CDS|ENSG00000164631|unk|total|mutant (ssRNA)
RNA: GGGAGUUCUACAGUCCGACGAUCUACGAAUGUAAUGAAUGUGGAAAGUUAUUCUCCCAGUUGUCAUACCUCACUAUCCAUCACCGAACUCAUUCAGGAGUAAAACCCUAUGAAUGCCGUGAAUGUGGGAAAACCUUCUACCAGCAACAGAGGAUUGAGCAUCA
B20: chr1:166069298:166070240:-|three_prime_utr|ENSG00000188859|control|control|control (ssRNA)
RNA: GGGAGUUCUACAGUCCGACGAUCAGUUUCUGAGCCAAAGCAGACCUCUCGGUUUGCCAGCCUUUGCAGCCACUUUUGAAGAGUAGGGCUGCUCCUUGGGUGGUAGAACCAUAAUCCUUAGGAAAAAUCCCUUCCUCUUAGGAACAACAGAGGAUUGAGCAUCA
B21: chr3:31636526:31636632:+|3pUTR|ENSG00000163527|unk|FALSE|unique (ssRNA)
RNA: GGGAGUUCUACAGUCCGACGAUCCAAAAUGUGAUGAGAGCUUCUUGAACCGGUAAACUAGUACAGGUCUGAGAAAGACAUAUUAGAAGAAUCAUUAUACUUCCUUGAAUUAUAUUUAUUUUCAUGUUUCUCUAAUGCAAAGAACAACAGAGGAUUGAGCAUCA
B22: chr15:74955373:74955475:-|3pUTR|ENSG00000178718|unk|FALSE|unique (ssRNA)
RNA: GGGAGUUCUACAGUCCGACGAUCGGACAGUUUUCCUUUCUAGUUUUCUUUCCCCUGCUUCAGAGGAGCAUCUCUGAGGGUUCUAGCUCUUUUAACACCCCUUUUCCCCCUGCUGGCCCAGAGGGAGACCCAGGACUGAACUCUCAACAGAGGAUUGAGCAUCA

What follows are binders tested against T1, UNK ZnF1-6 (called full-length) (human, UniProt Q9C0B0 30-357) (assay: nsRBNS (natural sequence RNA bind-n-seq); RBNS binding buffer (assumed for nsRBNS): 25 mM Tris pH 7.5, 150 mM KCl, 3 mM MgCl2, 0.01% Triton X-100, 500 ug/ml BSA, 20 U/ml SUPERase-In, 4 C; UNK is unkempt and MSI1 is Musashi-1; names of the RNAs are library labels; protein concentration not given here; high values mean tight binding).
T1 sequence: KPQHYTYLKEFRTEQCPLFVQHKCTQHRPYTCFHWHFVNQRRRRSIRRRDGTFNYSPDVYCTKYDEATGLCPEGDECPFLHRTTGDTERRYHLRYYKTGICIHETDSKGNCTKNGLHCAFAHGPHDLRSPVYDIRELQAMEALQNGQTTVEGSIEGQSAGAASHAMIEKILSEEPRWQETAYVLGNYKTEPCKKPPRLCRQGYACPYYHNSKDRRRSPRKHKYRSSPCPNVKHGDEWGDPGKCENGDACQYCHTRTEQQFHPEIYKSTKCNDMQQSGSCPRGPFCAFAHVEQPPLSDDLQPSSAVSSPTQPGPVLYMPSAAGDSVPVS

Binder	binding signal
B1	0.536 enrichment R
B2	0.605 enrichment R
B3	0.914 enrichment R
B4	0.587 enrichment R
B5	3.43 enrichment R
B6	3.21 enrichment R
B7	0.399 enrichment R
B8	0.642 enrichment R
B9	0.79 enrichment R
B10	2.02 enrichment R
B11	0.372 enrichment R
B12	1.46 enrichment R
B13	0.697 enrichment R
B14	0.555 enrichment R
B15	3.58 enrichment R
B16	0.55 enrichment R
B17	0.504 enrichment R
B18	6.33 enrichment R
B19	0.356 enrichment R
B20	0.582 enrichment R
B21	1.21 enrichment R
B22	10.8 enrichment R

— publication PMC12136788
